Experimental data: paper PMC4336329 (PLoS ONE, 2015)
Among all 310,000 compounds or so, about 2,200 (0.71%) showed an effect of 50% or more. The effect is printed as a negative number. The list shows a part of the results.

What follows are compounds tested against human ether-à-go-go-related gene (hERG) potassium channel (human, UniProt Q12809) (assay: primary screen, population patch clamp on CHO cells stably expressing hERG).
Sequence of human ether-à-go-go-related gene (hERG) potassium channel (Q12809 whole entry, looked up): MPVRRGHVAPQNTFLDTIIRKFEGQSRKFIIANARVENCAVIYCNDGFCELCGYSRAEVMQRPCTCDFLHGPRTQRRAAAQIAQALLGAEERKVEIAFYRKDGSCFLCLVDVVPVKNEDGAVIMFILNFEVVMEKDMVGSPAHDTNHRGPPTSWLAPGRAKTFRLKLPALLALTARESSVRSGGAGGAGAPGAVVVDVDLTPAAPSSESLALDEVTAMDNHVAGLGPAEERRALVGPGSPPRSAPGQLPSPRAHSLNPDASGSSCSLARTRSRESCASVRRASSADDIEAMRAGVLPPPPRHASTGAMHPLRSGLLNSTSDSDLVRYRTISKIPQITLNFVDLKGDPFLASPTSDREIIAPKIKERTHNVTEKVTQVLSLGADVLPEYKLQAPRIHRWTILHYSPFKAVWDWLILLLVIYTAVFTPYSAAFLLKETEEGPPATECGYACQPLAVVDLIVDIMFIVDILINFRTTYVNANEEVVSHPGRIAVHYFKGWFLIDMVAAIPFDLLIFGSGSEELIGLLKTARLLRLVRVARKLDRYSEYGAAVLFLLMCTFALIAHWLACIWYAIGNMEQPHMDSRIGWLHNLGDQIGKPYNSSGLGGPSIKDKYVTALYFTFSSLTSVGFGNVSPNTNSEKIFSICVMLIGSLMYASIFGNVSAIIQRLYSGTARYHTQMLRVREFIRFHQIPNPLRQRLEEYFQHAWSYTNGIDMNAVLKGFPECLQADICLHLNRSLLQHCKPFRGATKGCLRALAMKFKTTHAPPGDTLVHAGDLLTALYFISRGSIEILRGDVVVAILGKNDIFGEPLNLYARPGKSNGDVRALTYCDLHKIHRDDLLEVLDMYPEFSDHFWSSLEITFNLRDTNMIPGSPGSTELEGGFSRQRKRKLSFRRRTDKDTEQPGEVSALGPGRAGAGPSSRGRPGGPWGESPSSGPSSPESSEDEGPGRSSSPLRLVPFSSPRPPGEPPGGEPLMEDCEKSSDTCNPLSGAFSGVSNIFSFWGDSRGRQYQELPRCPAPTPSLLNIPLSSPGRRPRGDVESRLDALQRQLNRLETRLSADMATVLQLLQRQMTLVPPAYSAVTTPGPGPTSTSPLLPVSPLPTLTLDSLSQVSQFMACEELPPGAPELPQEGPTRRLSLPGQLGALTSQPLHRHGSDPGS

With `O=C(C1CCCCC1)N1CCc2ccccc21` as the compound, how does the “hERG current change (%, negative = inhibition) at 1uM” value read?
The value was 16.2%.

With `CCOC(=O)c1cn(-c2c(Cl)cccc2Cl)c2cc(Cl)c([N+](=O)[O-])cc2c1=O` as the compound, how does the “hERG current change (%, negative = inhibition) at 1uM” value read?
Its value is 8.33%.

Which “hERG current change (%, negative = inhibition) at 1uM” value does the source give for `COc1cc(C2/C(=C(\O)c3ccc4c(c3)CC(C)O4)C(=O)C(=O)N2c2nnc(C)s2)cc(OC)c1OC` (stereo not drawn) here?
The value was 12.5%.

With `CCOC(=O)N1CCN(C(=O)CCCn2nnnc2CN2CCC(C)CC2)CC1` as the compound, how does the “hERG current change (%, negative = inhibition) at 1uM” value read?
The value was 10.4%.

For `O=C(Nc1nnc(C2CC2)s1)c1cc(-c2ccccc2)nn1-c1ccccc1`, which “hERG current change (%, negative = inhibition) at 1uM” value is on record?
The value was 8%.

`CCc1c(C)sc(NC(=O)c2cc(CC(C)C)on2)c1C#N` was tested. Which “hERG current change (%, negative = inhibition) at 1uM” value did it give?
Its value is 6.85%.

How did the “hERG current change (%, negative = inhibition) at 1uM” value turn out when `COC(=O)C1CCN(C(=O)COC(=O)CC(NC(C)=O)c2ccccc2)CC1` (stereo not drawn) was run?
The value was 7.51%.

Which “hERG current change (%, negative = inhibition) at 1uM” value does the source give for `COc1ccc(NC(=S)N2CCCN(Cc3cccc(Cl)c3)C2)cc1` here?
Its value is 1.26%.

`CN(CC(=O)Nc1nc2ccc(F)cc2s1)S(=O)(=O)c1ccc(Cl)cc1` was tested. Which “hERG current change (%, negative = inhibition) at 1uM” value did it give?
Its value is 17.5%.

`COc1cc(C(=S)N2CCOCC2)ccc1OS(=O)(=O)c1ccccc1[N+](=O)[O-]` was tested. Which “hERG current change (%, negative = inhibition) at 1uM” value did it give?
Its value is 7.6%.

For `CCSc1ncc(Cl)c(C(=O)Nc2cc(C)ccc2C)n1`, which “hERG current change (%, negative = inhibition) at 1uM” value is on record?
Its value is 13.2%.

For `O=C(NCCCN1CCOCC1)C(=O)N/N=C/c1cccc2ccccc12`, which “hERG current change (%, negative = inhibition) at 1uM” value is on record?
Its value is 1.17%.

How did the “hERG current change (%, negative = inhibition) at 1uM” value turn out when `C=C1CCC(OC(C)=O)C2(C)CCC3C(C)C(=O)OC3C12O` (stereo not drawn) was run?
The value was 14.4%.

How did the “hERG current change (%, negative = inhibition) at 1uM” value turn out when `Cc1n[nH]c(C)c1S(=O)(=O)N1CCCCCC1` was run?
The value was -7.64%.

How did the “hERG current change (%, negative = inhibition) at 1uM” value turn out when `Cc1nn(C)cc1S(=O)(=O)N1CCN(Cc2ccc(F)cc2Cl)CC1` was run?
Its value is 2.49%.

For `COc1ccc(Cc2nc(-c3ccccn3)no2)cc1`, which “hERG current change (%, negative = inhibition) at 1uM” value is on record?
Its value is -0.526%.

For `Cc1ccc(S(=O)(=O)N2[C@@H](c3ccc(F)cc3)C(C(=O)O)=CC[C@H]2c2cccs2)cc1`, which “hERG current change (%, negative = inhibition) at 1uM” value is on record?
The value was 12%.

Which “hERG current change (%, negative = inhibition) at 1uM” value does the source give for `Cc1ccc(S(=O)(=O)NC(=O)Nc2c(C)n(C)n(-c3ccccc3)c2=O)cc1` here?
The value was 8.42%.

For `COc1ccccc1C(=O)COC(=O)CSC(C)C(=O)Nc1cc(C)on1` (stereo not drawn), which “hERG current change (%, negative = inhibition) at 1uM” value is on record?
Its value is 4.85%.

For `O=c1cc(O)c(-c2ccccc2Cl)c(Cl)[nH]1`, which “hERG current change (%, negative = inhibition) at 1uM” value is on record?
Its value is 7.7%.

`O=c1oc2ccccc2n1Cn1c(=O)oc2ccccc21` was tested. Which “hERG current change (%, negative = inhibition) at 1uM” value did it give?
Its value is 16.2%.

How did the “hERG current change (%, negative = inhibition) at 1uM” value turn out when `O=C(Nc1nnc(Cc2ccccc2F)s1)Nc1ccccc1F` was run?
The value was 15.2%.

With `Cc1cccc(NS(=O)(=O)c2ccc(C(=O)NCC(C)(C)N3CCOCC3)cc2)c1C` as the compound, how does the “hERG current change (%, negative = inhibition) at 1uM” value read?
The value was -6.55%.

Which “hERG current change (%, negative = inhibition) at 1uM” value does the source give for `CN(C)S(=O)(=O)c1ccc(N2CCCC2)c(C(=O)NC(c2ccccc2)c2ccccc2)c1` here?
The value was 5.57%.

How did the “hERG current change (%, negative = inhibition) at 1uM” value turn out when `O=C(Nc1ncccn1)C12CC3CC(CC(C3)C1)C2` was run?
Its value is 5.79%.

With `COCCNc1nc(-c2cc(C)c(C)cc2C)cs1.Cl` as the compound, how does the “hERG current change (%, negative = inhibition) at 1uM” value read?
The value was 7.44%.

Which “hERG current change (%, negative = inhibition) at 1uM” value does the source give for `O=C(CN1C(=O)C2CCCCC2C1=O)Nc1ccc(OC(F)F)c(Cl)c1` (stereo not drawn) here?
Its value is 7.77%.

How did the “hERG current change (%, negative = inhibition) at 1uM” value turn out when `Cc1ccccc1N1C(=O)c2sc3nc4c(c(=O)n3c2C1=O)CCC4` was run?
The value was 11.4%.

With `CCCOc1ccc(/C=C2\SC(=S)N(CC3CCCO3)C2=O)cc1` (stereo not drawn) as the compound, how does the “hERG current change (%, negative = inhibition) at 1uM” value read?
Its value is 10.5%.

For `COC(=O)[C@@]12CCCCN1[C@H](c1ccc(-c3cccc(Cl)c3)c(OC)c1)[C@@H]1C(=O)N(C)C(=O)[C@@H]12.O=C(O)C(F)(F)F`, which “hERG current change (%, negative = inhibition) at 1uM” value is on record?
The value was 16.5%.

With `COc1ccc(CC(=O)Nc2ccccc2C(=O)N2CCOCC2)cc1` as the compound, how does the “hERG current change (%, negative = inhibition) at 1uM” value read?
Its value is 12.5%.

Which “hERG current change (%, negative = inhibition) at 1uM” value does the source give for `CCc1ccc(C2CC(=O)N(c3ccc(F)cc3)C3=C2C(=O)OC3)cc1` (stereo not drawn) here?
The value was 4.29%.

With `Cc1ccc(C)c(-c2cc(C(=O)NC3CC3)c3ccccc3n2)c1` as the compound, how does the “hERG current change (%, negative = inhibition) at 1uM” value read?
The value was -32.5%.

For `CCCOC(=O)CSc1nc(N2CCOCC2)c2c(c1C#N)CC(C)(C)OC2`, which “hERG current change (%, negative = inhibition) at 1uM” value is on record?
Its value is 1.98%.

With `CC(C)N1C(=S)SC(C)(C)C1n1oc(=O)n(-c2ccc(Cl)c(Cl)c2)c1=O` (stereo not drawn) as the compound, how does the “hERG current change (%, negative = inhibition) at 1uM” value read?
The value was 5.15%.

Which “hERG current change (%, negative = inhibition) at 1uM” value does the source give for `COC(=O)C1=C(c2ccccc2)C[C@@H]2CC[C@H]1N2C(=O)NCC1CC1` here?
Its value is 7.61%.

For `COc1ccc(C2=NN(C(=O)CCC(=O)O)C(c3ccccc3OC)C2)cc1` (stereo not drawn), which “hERG current change (%, negative = inhibition) at 1uM” value is on record?
The value was 14.3%.

How did the “hERG current change (%, negative = inhibition) at 1uM” value turn out when `OC(COC(c1ccccc1)c1ccccc1)CN1CCN(c2ccccn2)CC1` (stereo not drawn) was run?
Its value is -73.5%.

For `S=C(NCc1ccccc1)NCc1cccc(CNC(=S)NCc2ccccc2)c1`, which “hERG current change (%, negative = inhibition) at 1uM” value is on record?
Its value is 16.2%.

With `COc1ccc(C(=O)CCC(=O)Nc2ccc(N3CCCCC3)cc2)cc1OC` as the compound, how does the “hERG current change (%, negative = inhibition) at 1uM” value read?
The value was 12%.

With `CCC(O)C1CCN(C(=O)c2cc(COc3ccc(F)cc3F)on2)CC1` (stereo not drawn) as the compound, how does the “hERG current change (%, negative = inhibition) at 1uM” value read?
The value was 9.85%.

`OCC[C@@H]1C[C@H](O)[C@@H](O)[C@]2(CCc3ccccc3O2)O1` was tested. Which “hERG current change (%, negative = inhibition) at 1uM” value did it give?
Its value is 17.8%.
